# In the supplement of paper PMC10441789:
# The list shows a part of the results. Antibody binding of pooled human sera (four to six donors per pool; dilution not stated) to peptides of the Trypanosoma cruzi antigen TSSA on microarrays. Quantile-normalised fluorescence in arbitrary units, mean of duplicate arrays; higher = more binding. No active / inactive call. The uninfected pools are read here as the healthy donors of the same country. The strongest signals lie near the top of the scale (about 60,000).
# Key:
# Test in all cases: antibody binding signal (normalised fluorescence) (arbitrary fluorescence units); higher = stronger serum antibody binding to peptide
# [1] = system: pooled sera of chronic Chagas disease patients, Argentina
# Experimental: (§1)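 Microarray of 15-residue peptides over residues 30-55 of Trypanosoma cruzi TSSAII, each with 1 to 10 substitutions at naturally variable positions, probed with one serum pool per country.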
# [2] = system: pooled sera of chronic Chagas disease patients, Bolivia
# Experimental: as §1
# [3] = system: pooled sera of chronic Chagas disease patients, Brazil
# Experimental: as §1
# [4] = system: pooled sera of chronic Chagas disease patients, Colombia
# Experimental: as §1
# [5] = system: pooled sera of chronic Chagas disease patients, Mexico
# Experimental: as §1
# [6] = system: pooled sera of chronic Chagas disease patients, USA
# Experimental: as §1
# [7] = system: pooled sera of uninfected people, Argentina
# Experimental: as §1
# [8] = system: pooled sera of uninfected people, Bolivia
# Experimental: as §1
# [9] = system: pooled sera of uninfected people, Brazil
# Experimental: as §1
# [10] = system: pooled sera of uninfected people, Colombia
# Experimental: as §1
# [11] = system: pooled sera of uninfected people, Mexico
# Experimental: as §1
# [12] = system: pooled sera of uninfected people, USA
# Experimental: as §1
Sequence,antibody binding signal [1],antibody binding signal [2],antibody binding signal [3],antibody binding signal [4],antibody binding signal [5],antibody binding signal [6],antibody binding signal [7],antibody binding signal [8],antibody binding signal [9],antibody binding signal [10],antibody binding signal [11],antibody binding signal [12]
TPPSGKENKTAAGGT,20000,4830,4780,1710,5690,3470,2910,1160,1360,489,260,264
ENKTATGGTPSQSGA,491,2140,535,922,439,1050,504,185,563,163,883,183
GKENKTAAGGTPSQS,1270,203,3430,4550,2240,9680,403,83.3,206,122,394,131
PSGKEKKAAAGGAPS,8070,3240,6750,13100,12400,7610,333,212,108,136,103,197
SGTEKKPAAGETPSP,1750,837,6360,767,548,2350,97.6,756,305,169,243,667
SGTDKKAATGETPSQ,2080,3020,17900,2180,307,12100,472,237,326,667,885,203
ENKAATGGAPSPSGA,702,1580,3170,745,472,2350,320,149,272,191,181,145
KDKKAAAGGTPSPPG,206,196,148,1590,211,1040,113,58.5,1090,109,82,88.2
EKKAAAGGAPSPPGA,489,228,302,5940,694,1080,206,789,350,134,140,544
EKKAAAGGAPSPSGA,693,207,259,5450,844,1050,214,532,222,149,120,531
TDKKPATGEAPSPPG,42600,47300,45700,402,194,34200,852,544,342,194,226,136
PPSGTDNKTATGGAP,23100,32200,45200,635,1560,4170,1280,1070,1700,557,327,805
GTEKKPATGGAPSPS,4050,371,1960,5530,4090,4150,336,1590,534,119,271,1240
PPSGTENKTATGGTP,41100,46100,48200,583,4810,13100,1160,550,594,695,899,745
GKEKKPATGEAPSQP,43500,23200,43500,9060,14500,33700,869,304,131,266,110,373
GKEKKPATGETPSQP,24900,3600,32400,6470,9860,20200,245,170,124,125,506,304
SGKDNKTAAGEAPSP,919,422,2020,3490,1130,8270,270,206,235,690,152,143
PPSGKENKPAAGEAP,9630,29500,9570,966,2360,19600,3630,3040,301,932,310,643
KDNKPAAGGAPSPSG,117,222,1180,1170,173,503,484,226,162,155,216,149
GKEKKTAAGGAPSPP,634,202,228,3260,1240,1390,118,101,108,172,96.1,106
DNKPATGGTPSPPGA,377,1030,1230,216,391,293,243,465,609,373,222,134
GTDKKTAAGETPSQS,204,327,633,1350,412,1210,96.2,331,200,664,193,92.9
PPSGKEKKAAAGGAP,1960,325,1850,3430,4410,2970,310,191,132,267,97.1,153
GTENKPATGETPSQP,45000,37400,44400,507,1570,25300,483,1030,640,160,1870,193
KDNKAAAGGAPSPSG,190,190,411,1250,180,342,256,2180,142,139,78.3,94

Sequence,antibody binding signal [1],antibody binding signal [2],antibody binding signal [3],antibody binding signal [4],antibody binding signal [5],antibody binding signal [6],antibody binding signal [7],antibody binding signal [8],antibody binding signal [9],antibody binding signal [10],antibody binding signal [11],antibody binding signal [12]
TSSTPPSGTENKAAT,48700,51000,53100,421,3610,28900,3410,632,327,611,240,645
GTDKKPAAGGTPSPS,306,316,852,10300,623,1130,152,336,1300,255,254,193
GTDKKTAAGETPSPS,205,245,326,1510,439,2950,144,364,152,483,514,2040
DKKPATGGTPSPSGA,958,684,445,3280,915,697,307,537,854,263,132,160
KEKKPATGETPSQPG,25000,7270,35900,249,331,17700,211,202,177,172,912,427
SGTDNKPATGGAPSQ,7330,14900,45500,3070,693,2890,246,1260,467,244,348,250
PPSGKENKTAAGETP,6410,9370,4090,1340,1770,3690,2440,1780,306,876,374,274
GTEKKPATGEAPSPP,41900,40800,47100,1150,2190,37300,863,1320,1260,242,468,963
NKPAAGGAPSQPGAS,267,667,20000,1340,306,612,747,1210,345,332,235,1390
GTENKAATGETPSQP,41300,10600,43100,1260,1470,13900,119,382,304,133,150,109
GKENKPATGGAPSPS,4420,1140,10700,6040,8360,13000,909,874,116,145,186,149
NKPATGGAPSPSGAS,808,2630,8710,403,577,2190,699,1690,440,343,264,1240
GKDNKPAAGETPSPS,1450,309,10700,1500,1970,3780,425,891,143,230,451,1520
PPSGKENKAATGGAP,5090,2700,5750,1210,2600,3890,3970,1630,152,719,260,456
GTDNKPAAGETPSPP,3340,269,43300,1400,328,5080,139,572,353,155,383,399
GTENKPATGGAPSQS,42200,17500,11300,718,2440,3480,522,2400,574,193,280,224
KDNKTAAGGTPSQSG,869,201,237,3230,224,1580,423,174,334,168,278,155
TDKKAAAGETPSPSG,514,286,800,369,373,2410,148,189,220,182,406,1970
GTENKPAAGGAPSQS,46000,1570,6480,1220,1570,1010,621,1420,425,190,328,210
GKEKKPATGETPSPP,30200,5530,20500,6560,8410,19700,165,167,94.6,126,479,412
GKENKPATGEAPSQS,47700,26600,51900,16800,16600,46600,1430,851,326,215,360,149
TENKAAAGGAPSPPG,36400,367,1490,2880,345,850,229,188,223,195,135,335
PSGTENKPAAGGTPS,54000,39200,47600,3610,4990,14200,2170,2870,1420,948,822,545
GTEKKAATGETPSPS,4030,1740,8890,1350,2080,12400,547,783,319,674,486,2870
KEKKTAAGEAPSQSG,149,1260,549,312,190,3080,136,116,98.7,389,80.8,97.1
